Source: PubChem BioAssay AID1508623 (National Center for Advancing Translational Sciences (NCATS), 2021)
Among all 48,000 compounds or so, about 450 (0.94%) were called active. Another 19% or so got no clear call; they are omitted. The call rests on the fitted dose curve; in most records, active means well fitted inhibition curve with a large enough effect; inconclusive means small, poorly fitted or top-dose-only effect; inactive means no such curve, though single readings can be large or run the other way. The list shows a part of the results.

assay: Primary qHTS for Identification of Small Molecule Inhibitors of Huntingtin Promoter Activity; details: HEK293 HTT promoter firefly luciferase reporter (activity 0% = vehicle and -100% = no light), 24 h; series mostly up to 57.5 µM; activity change, negative = inhibition: at the top concentration; further: nearly all actives have a fitted effect of over 50% in size
How it was run: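 Firefly luciferase signal from promoter-reporter HEK293 cells was scaled between vehicle (0%) and zero RLU (-100%). Compounds were tested at final concentrations of up to 57.5 uM over 24 h at 37 degrees C. PTC124 at 50 uM final served as control inhibitor.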

Activity change, negative = inhibition, inactive:
Cc1cccc(NC(=O)CSc2nnc3c4ccccc4n(C)c3n2)c1 -7.23%
CCc1ccc(S(=O)(=O)c2cn(CC(=O)Nc3cccc(C)c3)c3ccc(Cl)cc3c2=O)cc1 -17.1%
Cc1ccc(C)c(NC(=O)Nc2csc3c2CCCC3)c1 -19.6%
CCOc1ccc2nc(N3CCCC(C(=O)NCc4ccc(C)cc4)C3)sc2c1 (stereo unspecified) 71.3%
CC(C)NC(=O)C1CCN(C(=O)N2CC(C)Oc3ccccc32)CC1 (stereo unspecified) -0.728%
COc1ccccc1[C@H](c1cccc2ccccc12)[C@@](C)(C#N)C(=O)N1CCC(c2cccc(C(F)(F)F)c2)CC1 -4.39%
CCS(=O)(=O)NCCc1csc2nc(-c3ccc(C)cc3)nn12 -19.9%
O=C(COCc1cc(-c2cccs2)on1)Nc1cccc(O)c1 -11.3%
COc1ccc(NC(=O)Cn2cc(C(=O)c3cccs3)c3ccccc32)cc1 -18.8%
COC(=O)c1c(C)sc(-c2c(-c3ccc4c(c3)OCCO4)[nH]c3c2c(=O)[nH]c(=O)n3C)c1O -18.9%
O=C(O)CO.[NH2-].[NH2-].[Pt+2] 13%
Cc1c(CNCCCc2ccccc2)c(C(=O)O)c(C)n1Cc1cccc(Cl)c1 -17.1%
COc1ccc(S(=O)(=O)c2cn(C)c3cc(N4CCOCC4)c(F)cc3c2=O)cc1 -13.2%
Cc1ccc(OCc2cc(=O)n3cc(C)sc3n2)c(C)c1 4.14%
CCc1ccc(OCC(=O)Nc2ccc(Cl)c(-c3nc4ncccc4o3)c2)cc1 35.7%
CCc1ccc(OCC(=O)Nc2ccc3oc(-c4ccc(OC)cc4)nc3c2)cc1 39.8%
COC(=O)CC1Oc2ccc(Cl)cc2-n2cc(-c3ccc(F)cc3)nc21 (stereo unspecified) 2.04%
O=C(COc1ccccc1)Nc1c(Cl)ccc2nsnc12 -32.4%
CCCCCCCCCCCC(CC1OC(=O)C1CCCCCC)OC(=O)C(CC(C)C)NC=O (stereo unspecified) -6.6%
CCN1CCN(C(=O)c2c(C)nn(-c3ccc(F)cc3)c2-n2cccc2)CC1 -15.1%
CC(C)(C)NC(=O)CCSc1nc(-c2ccc3c(c2)OCO3)cc(C(F)(F)F)n1 0.616%
CN(Cc1ccccc1)c1ccc(-c2nc(-c3cccnc3)no2)cc1[N+](=O)[O-] 0.186%
CCN(Cc1ccccc1)S(=O)(=O)c1ccc2[nH]c3c(c2c1)CCCCC3 -32.9%
CCOC(=O)c1cccc(NC(=O)c2nn(-c3ccc(OC)cc3)c(=O)c3c2c2ccccc2n3C)c1 -23.6%
Cc1cc(-c2nc3ncccc3o2)ccc1NC(=O)COc1cc(C)c(Cl)c(C)c1 -15.3%
CN(C)c1ccc(CNC(=O)c2cccn2-c2nnc(N3CCCCC3)s2)cc1 -27.1%
Cc1ccc(C)c(NC(=O)CSc2nc(-c3ccccc3Cl)nc3c2Cc2c(CO)cnc(C)c2O3)c1 -18%
CCOC(=O)c1cnc2nc(NCc3ccc(OCC)cc3)[nH]n2c1=O -1.96%
O=C(NCc1ccc(F)cc1)C(=O)NCC(c1cccs1)S(=O)(=O)c1cccs1 (stereo unspecified) -33.4%
CCc1ccccc1NC(=O)CN1C(=O)COc2ccc(S(=O)(=O)N3CCCCCC3)cc21 -3.49%
CCN(CC)S(=O)(=O)c1ccc2c(c1)N(CC(=O)NCC(C)c1ccccc1)C(=O)CO2 (stereo unspecified) -11.4%
CCn1cc(C(=O)N2CCN(c3ccccc3OC)CC2)c(=O)c2cc(S(=O)(=O)N3CCC(C)CC3)ccc21 -6.15%
CC(C)Oc1ccc(CNC(=O)c2ccccc2NC(=O)c2nsc3ccccc23)cc1 9.33%
CC(=O)Oc1cccc(C)c1 5.02%
CNS(=O)(=O)c1cn(CC(=O)N2CCN(c3cccc(Cl)c3)CC2)cc1S(=O)(=O)NC -4.77%
O=C(CCCCn1c(=O)c2ccccc2n(Cc2ccccc2F)c1=O)NCc1ccccc1Cl 0.891%
Cc1ccc(NC(=O)CSc2nc3ccc(NC(=O)CCc4ccccc4)cc3s2)c(C)c1 4.01%
COC(=O)c1ccc(CN(Cc2ccc(OC)c(OC)c2)S(=O)(=O)c2cc(C(=O)Nc3cccc(C)c3)ccc2F)cc1 -19.6%
CCCCC(C=O)NC(=O)C(CC(C)C)NC(=O)OCc1ccccc1 (stereo unspecified) -22.7%
Cc1oc(-c2ccccc2F)nc1CSCC(=O)NCCc1ccccc1 -29.4%
CCC(Oc1ccccc1)C(=O)Nc1ccc(OCc2cc(=O)n3ccc(C)cc3n2)cc1 (stereo unspecified) -4.53%
COc1ccc(NC(=O)CN(C)S(=O)(=O)c2ccc3nc(C)sc3c2)cc1 -18%
COc1ccc(N2C(=O)CS(=O)(=O)C23C(=O)N(Cc2c(F)cccc2Cl)c2ccccc23)cc1 (stereo unspecified) -27%
CCCCn1cc(S(=O)(=O)c2ccccc2)c(=O)c2cc(F)c(N3CCC(C)CC3)cc21 -6.11%
CCOC(=O)c1cnc2c(C)cc(C)cc2c1Nc1ccc(OCc2ccccc2)cc1 -25.2%
COc1ccc(NC(=O)C2=C(C)Nc3ncnn3C2c2ccccn2)cc1 (stereo unspecified) -12.4%
CCOC(=O)C1=C(C(F)(F)F)Nc2ncnn2C1c1cccc(OC)c1OC (stereo unspecified) -15.7% [at 11.5 µM]
CCOc1ccc(CNC(=O)CCc2cn(CC)c3ccccc23)cc1 -7.83%
CC1=C(c2ccc(C)c(C)c2)S(=O)(=O)N=C1N1CCC(C(=O)N2CCCCC2)CC1 -23.8%
CCCOc1ccccc1-c1nc2n[nH]nc2c(=O)[nH]1 -2.68%
CCc1ccc(NC(=O)C2CCN(S(=O)(=O)c3c(C)noc3/C=C\c3ccc(OC)cc3)CC2)cc1 -15.6%
COc1cc(C(=O)Nc2ccc(OCc3cc(=O)n4cccc(C)c4n3)cc2)cc(OC)c1OC 0.725%
COc1ccccc1CNc1ccc(-c2nc(-c3cccc(C)c3)no2)cc1[N+](=O)[O-] -0.489%
CCOc1ccccc1N1CC(c2nc3ccccc3n2CCCCOc2cc(C)ccc2C)CC1=O (stereo unspecified) -6.35%
O=C(c1cnc(N2CCOCC2)c2ccccc12)N1CCN(c2ccccc2F)CC1 -25.9%
CN(C)c1ccc(CNC(=O)c2ccc3c(c2)N(C)C(=O)C2CCCCN32)cc1 (stereo unspecified) 11.3%
COc1ccc(-n2nc(C(=O)NCc3ccc(F)cc3)c3c4ccccc4n(C)c3c2=O)cc1 -9.8%
N#C/C(=C/c1ccccc1Cl)c1nc(-c2cc3ccccc3oc2=O)cs1 16.1%
O=C(Cn1c(=O)n(CC2CCCO2)c(=O)c2ccccc21)Nc1ccc(F)cc1F (stereo unspecified) -11.2%
COc1cc(C)ccc1OCCSc1nc2ccc(NC(=O)c3ccccc3F)cc2s1 -11.4%
COC(=O)c1cc(NC(=O)Cn2nc(-c3ccccc3)c3c(c2=O)CCCC3)cc(C(=O)OC)c1 -4.52%
